Results as given in PubChem BioAssay AID1476 (National Center for Advancing Translational Sciences (NCATS), 2009).
Out of some 200,000 compounds screened, about 4,500 (2.2%) were called active. The shares of active, inactive and inconclusive entries below differ from those in the screen. The call rests on the fitted dose curve; in most records, active means well fitted inhibition curve with a large enough effect; inconclusive means small, poorly fitted or top-dose-only effect, or effect the other way; inactive means flat fitted curve, though single readings scatter. A potency beside an inconclusive call is a rough fit, not a confirmed value.

molecular target: Cruzipain (Trypanosoma cruzi) (UniProt P25779); test: qHTS Assay for Promiscuous and Specific Inhibitors of Cruzain (without detergent); conditions: purified cruzain, Z-FR-AMC fluorescence, no detergent; further: nearly all actives have a fitted effect of over 40% in size
Chain of UniProt P25779 (P25779 whole entry, looked up): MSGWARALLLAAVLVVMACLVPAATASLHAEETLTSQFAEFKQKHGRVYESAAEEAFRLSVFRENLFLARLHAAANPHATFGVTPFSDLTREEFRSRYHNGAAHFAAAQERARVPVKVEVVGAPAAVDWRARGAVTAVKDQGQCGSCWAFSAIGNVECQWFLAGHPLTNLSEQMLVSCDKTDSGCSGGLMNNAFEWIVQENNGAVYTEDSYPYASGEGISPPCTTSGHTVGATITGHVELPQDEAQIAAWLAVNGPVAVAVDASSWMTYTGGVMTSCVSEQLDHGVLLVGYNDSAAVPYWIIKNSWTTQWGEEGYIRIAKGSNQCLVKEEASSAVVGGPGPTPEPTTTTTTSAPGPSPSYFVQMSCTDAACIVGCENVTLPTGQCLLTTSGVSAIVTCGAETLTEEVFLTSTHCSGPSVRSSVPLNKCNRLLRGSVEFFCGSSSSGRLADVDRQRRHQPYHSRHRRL
Experimental: Cruzain is a cysteine protease from the tropical parasite Trypanosoma cruzi. Dual qHTS experiment was performed against the NCGC compound collection in order to 1) identify novel inhibitors of the enzyme and 2) profile the compound collection for promiscuous inhibitors operating via colloidal aggregation (by performing detergent-free and detergent-containing comparison screens). Cruzain was assayed by the use of fluorogenic coumarin-based substrate Z-FR-AMC: proteolytic cleavage releases AMC, whose fluorescence is measured at 360 nm excitation and 450 nm emission. Purified cruzain was supplied by the labs of Prof. James McKerrow and Brian Shoichet, UC San Francisco.
This assay had 0.00005% Triton X-100 concentration. See also releated assay "qHTS Assay for Promiscuous and Specific Inhibitors of Cruzain (with detergent)" with 0.01% Triton X-100.
See following references for additional details:
Assay Provider: Shoichet, Brian; University of California, San Fancisco
Screening Center PI: Austin, C.P.
Screening Center: NIH Chemical Genomics Center [NCGC]
Buffer: 100 mM Sodium Acetate, pH 5.5, 5 mM DTT, Triton X-100 concentration: 0.01%.
Buffer in columns 3 and 4 as negative control (no enzyme).
Substrate solution: 2 uM final concentration of Z-FR-AMC (catalog number I-1160, Bachem) dispensed throughout the plate.
Enzyme: 1.5 nM Cruzain final concentration in columns 1, 2, 5-48. Column 1 is neutral (100% activity). Column 2 contained titration of covalent inhibitor K11777, starting concentration 1 mM, then 1:2 dilution in duplicate).
Three uL of enzyme or buffer were dispensed to 1536-well Greiner black solid bottom plates. Compounds and controls (23 nL) were transferred via Kalypsys PinTool. The plates were incubated for 15 min at room temperature, and then 1 uL of substrate solution was added to start the reaction. The plates were immediately transferred to and read 4 times every 30 seconds for 2 min on ViewLux High-throughput CCD imager (Perkin-Elmer) using 360 nm excitation and 450 nm emission fluorescence protocol. The fluorescence intensity difference between the third and the first time points (time lapse of 60 seconds) was used to compute reaction progress.
Potency means the concentration at half of the fitted maximal effect; tags describe the fitted curve by direction and shape.

SMILES | max response, negative = inhibition | Potency
COc1cc(Cl)c(C)cc1NC(=O)C1CCCN(c2ncnc3onc(-c4ccc(F)cc4)c23)C1 (stereo not given) | inactive: 12.5% | 
O=C(c1ccc2c(c1)N(Cc1cccc(Cl)c1)C(=O)c1ccccc1S2(=O)=O)N1CCc2ccccc21 |  | active: 20 µM
Cc1ccccc1Nc1nnc(SCC(=O)NC2CCCc3ccccc32)s1 (stereo not given) |  | inconclusive: 39.8 µM [inhibitor, single point]
CCc1ccccc1N(CC)C(=O)C(=O)Nc1ccc2nc3n(c(=O)c2c1)CCCCC3 |  | inconclusive: 39.8 µM [activator, single point]
Cc1cc(C)c(N(C(=O)Cn2nnc3ccccc32)C(C(=O)NC(C)(C)C)c2ccsc2)c(C)c1 (stereo not given) |  | inconclusive: 10 µM [activator, partial curve]
Cc1ccc(C(=O)N2CCN(c3cccc(Cl)c3)CC2)cc1-n1c(C)nc2cccnc21 |  | inconclusive: 31.6 µM [activator, single point]
N#C/C(C(=O)NCc1ccccc1)=C1/SC(Cc2ccc(Cl)cc2)C(=O)N1c1ccccc1 (stereo not given) |  | inconclusive: 39.8 µM [inhibitor, single point]
Cc1ccc(C(C(=O)NCC2CCCO2)N(Cc2ccccc2F)C(=O)Cn2nnc(-c3cccs3)n2)cc1 (stereo not given) |  | inconclusive: 39.8 µM [activator, single point]
CCCCCn1c(=N)c(S(=O)(=O)c2ccc(C)cc2)cc2c(=O)n3cc(C)ccc3nc21 | inactive: -9.42% | 
O=C(OC1CCN(c2ncc(C(F)(F)F)cc2Cl)CC1)c1cccc(C(F)(F)F)c1 | inactive: -17.9% | 
CC(C)(C)OC(=O)C(Cc1ccc(OC(C)(C)C)cc1)NC(=O)CNC(=O)OCc1ccccc1 (stereo not given) |  | inconclusive: 25.1 µM [activator, single point]
CC(C)CCSc1nc(N2CCOCC2)c2c(c1C#N)CC(C)(C)OC2 |  | inconclusive: 39.8 µM [activator, single point]
COc1ccc(CNC(=O)C2CCN(C(=O)c3cnn(-c4ccccc4)c3-n3cccc3)CC2)cc1 |  | inconclusive: 31.6 µM [activator, single point]
O=C(NCc1ccccc1)C(=O)NCC1COc2ccccc2O1 (stereo not given) |  | inconclusive: 39.8 µM [inhibitor, single point]
CC(=O)c1sc(Nc2nc3ccc(F)cc3s2)nc1C |  | inconclusive: 31.6 µM [activator, single point]
COc1cc(OC)cc(-c2nc3ccccc3c(=O)o2)c1 |  | active: 15.8 µM
COc1cc(OC)c2c(-c3cccc(-c4ccc(C(F)(F)F)cc4)c3)cc(=O)oc2c1 |  | inconclusive: 31.6 µM [inhibitor, partial curve]
Cc1ccc(N(Cc2ccccc2)Cc2ccccc2)cc1 | inactive: -8.9% | 
COc1cc2c(cc1OC)C(C)N(C(=O)c1cc3c(=O)oc4ccc(C)cc4c3s1)CC2 (stereo not given) |  | inconclusive: 12.6 µM [activator, partial curve]
CC1(C)CC2CC(C)(CN2C(=O)COC(=O)c2cc(Cl)cc(Cl)c2N)C1 (stereo not given) | inactive: 0.109% | 
CCN(CC)C(=O)c1sc2c(c1C)c(=O)n(-c1ccc(C)c(C)c1)c(=O)n2CC(=O)Nc1ccc(OC)cc1OC |  | inconclusive: 31.6 µM [activator, single point]
Cc1cc(F)ccc1NC(=O)CCS(=O)(=O)c1cc2c3c(c1)CCN3C(=O)CC2 | inactive: 1.13% | 

SMILES | max response, negative = inhibition | Potency
COc1ccc2c(c1)CCN(C(=O)CCl)C2C1C(=O)CCCC1=O (stereo not given) | inactive: 7.59% | 
O=[N+]([O-])c1ccc(S(=O)(=O)Nc2ccc(-c3csc(-c4ccccc4)n3)cc2)cc1 |  | inconclusive: 39.8 µM [inhibitor, single point]
Cc1cccc(/C=C/C(=O)c2cc(Br)ccc(=O)c2O)c1 |  | inconclusive: 31.6 µM [inhibitor, single point]
Cn1cnnc1Sc1ccc(C(=O)NCCC(c2ccccc2)c2ccccc2)cc1[N+](=O)[O-] |  | inconclusive: 39.8 µM [activator, single point]
CCn1c(COc2ccc3c(c2)CCCC3)nnc1SCC(=O)Nc1nccs1 |  | active: 7.94 µM
CCOC(=O)N1CCN(CC(=O)Nc2c(C(=O)OC)[nH]c3cccc(Cl)c23)CC1 |  | inconclusive: 31.6 µM [activator, single point]
COc1cc2ccccc2cc1C(=O)N1CCN(c2nc3c(F)cccc3s2)CC1 | inactive: -3.57% | 
O=C(NCc1ccc(Cl)cc1)C(=O)NCC(c1ccc2c(c1)OCO2)N1CCOCC1 (stereo not given) | inactive: -9.07% | 
Cc1ccc(NC(=O)CSc2nnc(Cc3cccn3C)n2-c2ccc(F)cc2)cc1 |  | inconclusive: 25.1 µM [activator, single point]
COCCN1C(=O)N(c2cccc(OC)c2)C(=O)C1CC(=O)Nc1ccccc1 (stereo not given) | inactive: -4.17% | 
Nn1cc(-c2ccccc2)nc1SCC(=O)N1CCN(S(=O)(=O)c2ccc3ccccc3c2)CC1 |  | inconclusive: 31.6 µM [inhibitor, single point]
CCc1ccccc1NC(=O)Cn1nnc(C(=O)NCc2ccco2)c1N | inactive: -17.8% | 
O=C(CCS(=O)(=O)c1ccccc1)N(Cc1cccnc1)c1nc2c(F)cccc2s1 | inactive: 15.4% | 
COc1cc(/C=C2\SC(=S)N(CC(=O)Nc3cccnc3)C2=O)cc(OC)c1OC |  | inconclusive: 39.8 µM [activator, single point]
Cc1ccc(-c2nc(CS(=O)(=O)CC(=O)NC(C)CCc3ccccc3)c(C)o2)cc1 (stereo not given) |  | inconclusive: 39.8 µM [activator, single point]
COc1ccc(/C=C/c2nc(C#N)c(N3CCC(C(N)=O)CC3)o2)cc1OC |  | active: 31.6 µM
Cc1c(NC(=O)Nc2cccc(C(F)(F)F)c2)sc2nc3n(c(=O)c12)CCC(C)CC3 (stereo not given) | inactive: -11.7% | 
Cc1cc(C)cc(NC(=S)NCc2ccc3[nH]c4c(c3c2)CCCC4)c1 |  | active: 31.6 µM
CCc1ccc(N2C(=O)c3sc4nnc(C)c(=O)n4c3C2=O)cc1 |  | inconclusive: 39.8 µM [inhibitor, single point]
Cc1oc(-c2ccc(Cl)cc2)nc1CN1C(=O)CN=C(c2ccccc2)c2cc(Cl)ccc21 |  | inconclusive: 31.6 µM [activator, single point]
COc1ccc(N(CC(=O)N2CCC(C)CC2)S(=O)(=O)c2c(C)nn(C)c2C)cc1 |  | inconclusive: 25.1 µM [activator, single point]
COc1ccc(C(=O)CSc2nnc(CN3CCCCC3)n2-c2ccc(Cl)cc2)cc1OC |  | inconclusive: 39.8 µM [activator, single point]

SMILES | max response, negative = inhibition | Potency
O=C(Nc1ccc(F)c(Cl)c1)c1cc(S(=O)(=O)NCc2ccc3c(c2)OCO3)ccc1F | inactive: -16.2% | 
CCOc1ccc2nc(N3CCCC(C(=O)NCCc4ccc(OC)cc4OC)C3)sc2c1 (stereo not given) |  | inconclusive: 5.01 µM [activator, full curve]
CCOC(=O)C1CCN(c2cc3c(cc2NC(=O)c2ccccc2Cl)n(C)c(=O)n3C)CC1 |  | inconclusive: 39.8 µM [activator, single point]
COc1ccc(-c2nc3sc(CCNC(=O)C(C)(C)C)c(C)n3n2)cc1 |  | inconclusive: 39.8 µM [activator, single point]
CCOc1ccc(-c2nnc(SCC(=O)Nc3ccc4c(c3)c3ccccc3n4CC)n2N)cc1 |  | inconclusive: 25.1 µM [inhibitor, single point]
COc1ccc(OC)c(NC(=O)CSc2nnc(Cc3cccn3C)n2CCc2ccccc2)c1 |  | inconclusive: 39.8 µM [activator, single point]
N[C@H](C(=O)O)[C@@H](O)c1cnc[nH]1 | inactive: 6.17% | 
Cc1ccc(NCC(=O)c2ccccc2)cc1Cl |  | inconclusive: 31.6 µM [inhibitor, single point]
CCn1c(C(=O)N2CCC(C(=O)NCc3ccc4c(c3)OCO4)CC2)cc2sccc21 |  | inconclusive: 31.6 µM [activator, single point]
Cc1ccc(-c2nc3ccccc3s2)cc1NC(=S)NC(=O)/C=C/c1ccco1 |  | active: 15.8 µM
COC(=O)c1ccc2c(c1)c(C#Cc1ccccc1)c(-c1ccccc1)n2C |  | active: 17.8 µM
Cc1ccc(OC(=O)CSc2nnc(-c3ccc4c(c3)OCO4)o2)c(C)c1 | inactive: -4.55% | 
CCOc1ccccc1NC(=O)N1CC(C)Oc2ccc(Cl)cc21 (stereo not given) | inactive: 0.605% | 
CCOC(=O)c1cnc(NCc2ccc(OC)cc2OC)c2ccccc12 |  | inconclusive: 39.8 µM [activator, single point]
O=c1[nH]c(/C=C/c2ccccc2[N+](=O)[O-])nc2ccccc12 | inactive: -0.122% | 
O=C(Nc1ccccc1N1CCCCC1)c1ccc(N2C(=O)c3ccccc3C2=O)cc1 |  | inconclusive: 25.1 µM [inhibitor, single point]
O=C(Nc1cccc(S(=O)(=O)NC2=NCCCCC2)c1)c1cc(-c2ccccc2Cl)nc2ccccc12 |  | inconclusive: 39.8 µM [inhibitor, single point]
CCN1/C(=C2\SC(=S)N(Cc3ccccc3)C2=O)Sc2ccccc21 |  | active: 10 µM
Cc1ccc(C(=O)c2sc(Nc3ccc(F)cc3)c(C#N)c2N)cc1 |  | inconclusive: 20 µM [inhibitor, single point]
CCOC(=O)N1CCN(C(=O)c2ccc(N(Cc3ccc(C)cc3)S(C)(=O)=O)cc2)CC1 |  | inconclusive: 25.1 µM [activator, partial curve]
COc1ccc(S(=O)(=O)Nc2ccccc2C(=O)NCc2ccco2)cc1 |  | inconclusive: 39.8 µM [inhibitor, single point]
